Results reported in the supplement of paper PMC8728848.
This is one part of the list.

Experiments:
Assay in all cases: glycan array binding signal (z-score within array); higher = stronger binding
Conditions in all cases: glycan notation: IUPAC condensed, linker removed
[1] = molecular target: Man(a1-3)[Man(a1-6)]Man(b1-4)GlcNAc(b1-4)GlcNAc
Summary of the method: (§1)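 The Consortium for Functional Glycomics database supplied 3228 glycan arrays, of which those lacking an available protein sequence were dropped. The binding signal, a within-array Z-score, was averaged across arrays of the same protein sequence and across linkers. Negative scores can be read as non-binding.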

[2] = molecular target: Man(b1-4)GlcNAc
Summary of the method: as §1

[3] = molecular target: Neu5Ac(a2-3)Gal
Summary of the method: as §1

[4] = molecular target: Neu5Ac(a2-3)Gal(b1-3)GalNAc
Summary of the method: as §1

[5] = molecular target: Neu5Ac(a2-3)Gal(b1-3)GalNAc(b1-3)Gal(a1-4)Gal(b1-4)Glc
Summary of the method: as §1

[6] = molecular target: Neu5Ac(a2-3)Gal(b1-3)GalNAc(b1-4)[Neu5Ac(a2-3)]Gal(b1-4)Glc
Summary of the method: as §1

[7] = molecular target: Neu5Ac(a2-3)Gal(b1-3)GalNAc6S
Summary of the method: as §1

[8] = molecular target: Neu5Ac(a2-3)Gal(b1-3)GlcNAc
Summary of the method: as §1

[9] = molecular target: Neu5Ac(a2-3)Gal(b1-3)GlcNAc(b1-3)Gal(b1-4)GlcNAc
Summary of the method: as §1

[10] = molecular target: Neu5Ac(a2-3)Gal(b1-3)GlcNAc6S
Summary of the method: as §1

[11] = molecular target: Neu5Ac(a2-3)Gal(b1-3)[Fuc(a1-4)]GlcNAc
Summary of the method: as §1

[12] = molecular target: Neu5Ac(a2-3)Gal(b1-3)[Fuc(a1-4)]GlcNAc(b1-3)Gal(b1-4)[Fuc(a1-3)]GlcNAc
Summary of the method: as §1

[13] = molecular target: Neu5Ac(a2-3)Gal(b1-3)[Neu5Ac(a2-3)Gal(b1-4)]GlcNAc
Summary of the method: as §1

[14] = molecular target: Neu5Ac(a2-3)Gal(b1-3)[Neu5Ac(a2-6)]GalNAc
Summary of the method: as §1

[15] = molecular target: Neu5Ac(a2-3)Gal(b1-4)Glc
Summary of the method: as §1

[16] = molecular target: Neu5Ac(a2-3)Gal(b1-4)GlcNAc
Summary of the method: as §1

[17] = molecular target: Neu5Ac(a2-3)Gal(b1-4)GlcNAc(b1-3)Gal(b1-4)GlcNAc
Summary of the method: as §1

[18] = molecular target: Neu5Ac(a2-3)Gal(b1-4)GlcNAc(b1-3)Gal(b1-4)GlcNAc(b1-3)Gal(b1-4)GlcNAc
Summary of the method: as §1

[19] = molecular target: Neu5Ac(a2-3)Gal(b1-4)GlcNAc(b1-3)Gal(b1-4)[Fuc(a1-3)]GlcNAc
Summary of the method: as §1

[20] = molecular target: Neu5Ac(a2-3)Gal(b1-4)GlcNAc6S
Summary of the method: as §1

[21] = molecular target: Neu5Ac(a2-3)Gal(b1-4)[Fuc(a1-3)]GlcNAc
Summary of the method: as §1

[22] = molecular target: Neu5Ac(a2-3)Gal(b1-4)[Fuc(a1-3)]GlcNAc(b1-3)Gal
Summary of the method: as §1

[23] = molecular target: Neu5Ac(a2-3)Gal(b1-4)[Fuc(a1-3)]GlcNAc(b1-3)Gal(b1-4)GlcNAc
Summary of the method: as §1

[24] = molecular target: Neu5Ac(a2-3)Gal(b1-4)[Fuc(a1-3)]GlcNAc(b1-3)Gal(b1-4)[Fuc(a1-3)]GlcNAc(b1-3)Gal(b1-4)[Fuc(a1-3)]GlcNAc
Summary of the method: as §1

[25] = molecular target: Neu5Ac(a2-3)Gal(b1-4)[Fuc(a1-3)]GlcNAc6S
Summary of the method: as §1

[26] = molecular target: Neu5Ac(a2-3)Gal6S(b1-4)GlcNAc
Summary of the method: as §1

[27] = molecular target: Neu5Ac(a2-3)Gal6S(b1-4)[Fuc(a1-3)]GlcNAc
Summary of the method: as §1

[28] = molecular target: Neu5Ac(a2-3)GalNAc
Summary of the method: as §1

[29] = molecular target: Neu5Ac(a2-3)GalNAc(b1-4)GlcNAc
Summary of the method: as §1

[30] = molecular target: Neu5Ac(a2-3)[GalNAc(b1-4)]Gal(b1-4)Glc
Summary of the method: as §1

[31] = molecular target: Neu5Ac(a2-3)[GalNAc(b1-4)]Gal(b1-4)GlcNAc
Summary of the method: as §1

[32] = molecular target: Neu5Ac(a2-3)[Neu5Ac(a2-6)]GalNAc
Summary of the method: as §1

[33] = molecular target: Neu5Ac(a2-6)Gal(b1-4)GlcNAc
Summary of the method: as §1

[34] = molecular target: Neu5Ac(a2-6)Gal(b1-4)GlcNAc(b1-2)Man(a1-3)[Neu5Ac(a2-6)Gal(b1-4)GlcNAc(b1-2)Man(a1-6)]Man(b1-4)GlcNAc(b1-4)GlcNAc
Summary of the method: as §1

[35] = molecular target: Neu5Ac(a2-6)Gal(b1-4)GlcNAc(b1-3)Gal(b1-4)GlcNAc
Summary of the method: as §1

[36] = molecular target: Neu5Ac(a2-6)Gal(b1-4)GlcNAc(b1-3)Gal(b1-4)[Fuc(a1-3)]GlcNAc(b1-3)Gal(b1-4)[Fuc(a1-3)]GlcNAc
Summary of the method: as §1

[37] = molecular target: Neu5Ac(a2-6)Gal(b1-4)GlcNAc6S
Summary of the method: as §1

[38] = molecular target: Neu5Ac(a2-6)GalNAc
Summary of the method: as §1

[39] = molecular target: Neu5Ac(a2-6)GalNAc(b1-4)GlcNAc
Summary of the method: as §1

[40] = molecular target: Neu5Ac(a2-8)Neu5Ac
Summary of the method: as §1

[41] = molecular target: Neu5Ac(a2-8)Neu5Ac(a2-3)Gal(b1-4)Glc
Summary of the method: as §1

[42] = molecular target: Neu5Ac(a2-8)Neu5Ac(a2-3)[GalNAc(b1-4)]Gal(b1-4)Glc
Summary of the method: as §1

[43] = molecular target: Neu5Ac(a2-8)Neu5Ac(a2-8)Neu5Ac
Summary of the method: as §1

[44] = molecular target: Neu5Ac(a2-8)Neu5Ac(a2-8)Neu5Ac(a2-3)Gal(b1-4)Glc
Summary of the method: as §1

[45] = molecular target: Neu5Ac(a2-8)Neu5Ac(a2-8)Neu5Ac(a2-3)[GalNAc(b1-4)]Gal(b1-4)Glc
Summary of the method: as §1

B1: Onconase (Rana pipiens), P22069 (protein)
chain: QDWLTFQKKHITNTRDVDCDNIMSTNLFHCKDKNTFIYSRPEPVKAICKGIIASKNVLTTSEFYLSDCNVTSRPCKYKLKKSTNKFCVTCENQAPVHFVGVGSC
glycan array binding signal (z-score) [1]: -0.04 | glycan array binding signal (z-score) [2]: 0.119 | glycan array binding signal (z-score) [3]: -0.637 | glycan array binding signal (z-score) [4]: 0.515 | glycan array binding signal (z-score) [5]: 0.792 | glycan array binding signal (z-score) [6]: 0.926 | glycan array binding signal (z-score) [7]: 0.697 | glycan array binding signal (z-score) [8]: 0.072 | glycan array binding signal (z-score) [9]: 0.087 | glycan array binding signal (z-score) [10]: 0.383 | glycan array binding signal (z-score) [11]: 1.03 | glycan array binding signal (z-score) [12]: 0.876 | glycan array binding signal (z-score) [13]: 0.929 | glycan array binding signal (z-score) [14]: 1.05 | glycan array binding signal (z-score) [15]: -0.037 | glycan array binding signal (z-score) [16]: -0.359 | glycan array binding signal (z-score) [17]: -0.254 | glycan array binding signal (z-score) [18]: 2.53 | glycan array binding signal (z-score) [19]: -0.671 | glycan array binding signal (z-score) [20]: 0.465 | glycan array binding signal (z-score) [21]: -0.979 | glycan array binding signal (z-score) [22]: -0.067 | glycan array binding signal (z-score) [23]: -0.952 | glycan array binding signal (z-score) [24]: 0.618 | glycan array binding signal (z-score) [25]: -0.331 | glycan array binding signal (z-score) [26]: 0.925 | glycan array binding signal (z-score) [27]: -1.47 | glycan array binding signal (z-score) [28]: 0.276 | glycan array binding signal (z-score) [29]: 1.14 | glycan array binding signal (z-score) [30]: 0.049 | glycan array binding signal (z-score) [31]: 1.88 | glycan array binding signal (z-score) [32]: 0.016 | glycan array binding signal (z-score) [33]: 0.51 | glycan array binding signal (z-score) [34]: 1.79 | glycan array binding signal (z-score) [35]: 0.701 | glycan array binding signal (z-score) [36]: 0.772 | glycan array binding signal (z-score) [37]: -0.104 | glycan array binding signal (z-score) [38]: 0.41 | glycan array binding signal (z-score) [39]: 0.161 | glycan array binding signal (z-score) [40]: -0.984 | glycan array binding signal (z-score) [41]: -0.854 | glycan array binding signal (z-score) [42]: 1.16 | glycan array binding signal (z-score) [43]: -1.76 | glycan array binding signal (z-score) [44]: 0.033 | glycan array binding signal (z-score) [45]: 2.14
